# Laboratory results published in the supplement of paper PMC8728848.
# The other results are listed elsewhere or left out.
# B1: HBHA-Rv (Mycobacterium tuberculosum), P0A5P6 (protein)
# chain: MAENSNIDDIKAPLLAALGAADLALATVNELITNLRERAEETRTDTRSRVEESRARLTKLQEDLPEQLTELREKFTAEELRKAAEGYLEAATSRYNELVERGEAALERLRSQQSFEEVSARAEGYVDQAVELTQEALGTVASQTRAVGERAAKLVGIELPKKAAPAKKAAPAKKAAPAKKAAAKKAPAKKAAAKKVTQK
# Experiments:
# Assay in all cases: glycan array binding signal (z-score within array); higher = stronger binding
# Conditions in all cases: glycan notation: IUPAC condensed, linker removed
# [1] = target: Neu5Ac(a2-3)Gal(b1-3)GlcNAc6S
# Method in brief: (§1)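 Arrays were curated from the Consortium for Functional Glycomics database, 3228 in total, and kept only where the protein sequence was available. Binding is expressed as a within-array Z-score. This score was averaged across arrays of the same protein sequence at different concentrations or buffers and across linkers, and negative values can be read as non-binding.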
# [2] = target: Neu5Ac(a2-3)Gal(b1-3)[Fuc(a1-4)]GlcNAc
# Method in brief: as §1
# [3] = target: Neu5Ac(a2-3)Gal(b1-3)[Fuc(a1-4)]GlcNAc(b1-3)Gal(b1-3)[Fuc(a1-4)]GlcNAc
# Method in brief: as §1
# [4] = target: Neu5Ac(a2-3)Gal(b1-3)[Fuc(a1-4)]GlcNAc(b1-3)Gal(b1-4)[Fuc(a1-3)]GlcNAc
# Method in brief: as §1
# [5] = target: Neu5Ac(a2-3)Gal(b1-3)[GlcNAc(b1-6)]GalNAc
# Method in brief: as §1
# [6] = target: Neu5Ac(a2-3)Gal(b1-3)[Neu5Ac(a2-6)]GalNAc
# Method in brief: as §1
# [7] = target: Neu5Ac(a2-3)Gal(b1-3)[Neu5Ac(a2-6)]GlcNAc(b1-3)[Fuc(a1-3)[Gal(b1-4)]GlcNAc(b1-6)]Gal(b1-4)Glc
# Method in brief: as §1
# [8] = target: Neu5Ac(a2-3)Gal(b1-3)]Neu5Ac(a2-3)Gal(b1-4)]GlcNAc
# Method in brief: as §1
# Neu5Ac(a2-3)Gal(b1-4)Glc = target: Neu5Ac(a2-3)Gal(b1-4)Glc
# Method in brief: as §1
# [9] = target: Neu5Ac(a2-3)Gal(b1-4)GlcNAc
# Method in brief: as §1
# [10] = target: Neu5Ac(a2-3)Gal(b1-4)GlcNAc(b1-2)Man
# Method in brief: as §1
# [11] = target: Neu5Ac(a2-3)Gal(b1-4)GlcNAc(b1-2)Man(a1-3)[GlcNAc(b1-4)][Neu5Ac(a2-3)Gal(b1-4)GlcNAc(b1-2)Man(a1-6)]Man(b1-4)GlcNAc(b1-4)GlcNAc
# Method in brief: as §1
# [12] = target: Neu5Ac(a2-3)Gal(b1-4)GlcNAc(b1-2)Man(a1-3)[Neu5Ac(a2-3)Gal(b1-4)GlcNAc(b1-2)Man(a1-6)]Man(b1-4)GlcNAc(b1-4)GlcNAc
# Method in brief: as §1
# [13] = target: Neu5Ac(a2-3)Gal(b1-4)GlcNAc(b1-2)Man(a1-3)[Neu5Ac(a2-3)Gal(b1-4)GlcNAc(b1-2)Man(a1-6)]Man(b1-4)GlcNAc(b1-4)[Fuc(a1-6)]GlcNAc
# Method in brief: as §1
# [14] = target: Neu5Ac(a2-3)Gal(b1-4)GlcNAc(b1-2)Man(a1-3)[Neu5Ac(a2-6)Gal(b1-4)GlcNAc(b1-2)Man(a1-6)]Man(b1-4)GlcNAc(b1-4)GlcNAc
# Method in brief: as §1
# [15] = target: Neu5Ac(a2-3)Gal(b1-4)GlcNAc(b1-2)[Neu5Ac(a2-3)Gal(b1-4)GlcNAc(b1-4)]Man(a1-3)[GlcNAc(b1-4)][Neu5Ac(a2-3)Gal(b1-4)GlcNAc(b1-2)[Neu5Ac(a2-3)Gal(b1-4)GlcNAc(b1-6)]Man(a1-6)]Man(b1-4)GlcNAc(b1-4)GlcNAc
# Method in brief: as §1
# [16] = target: Neu5Ac(a2-3)Gal(b1-4)GlcNAc(b1-2)[Neu5Ac(a2-3)Gal(b1-4)GlcNAc(b1-4)]Man(a1-3)[GlcNAc(b1-4)][Neu5Ac(a2-3)Gal(b1-4)GlcNAc(b1-4)Man(a1-6)]Man(b1-4)GlcNAc(b1-4)GlcNAc
# Method in brief: as §1
# [17] = target: Neu5Ac(a2-3)Gal(b1-4)GlcNAc(b1-2)[Neu5Ac(a2-3)Gal(b1-4)GlcNAc(b1-6)]Man(a1-6)[Neu5Ac(a2-3)Gal(b1-4)GlcNAc(b1-2)Man(a1-3)]Man(b1-4)GlcNAc(b1-4)GlcNAc
# Method in brief: as §1
# [18] = target: Neu5Ac(a2-3)Gal(b1-4)GlcNAc(b1-2)[Neu5Ac(a2-3)Gal(b1-4)GlcNAc(b1-6)]Man(a1-6)[Neu5Ac(a2-3)Gal(b1-4)GlcNAc(b1-2)Man(a1-3)][GlcNAc(b1-4)]Man(b1-4)GlcNAc(b1-4)GlcNAc
# Method in brief: as §1
# [19] = target: Neu5Ac(a2-3)Gal(b1-4)GlcNAc(b1-3)Gal
# Method in brief: as §1
# [20] = target: Neu5Ac(a2-3)Gal(b1-4)GlcNAc(b1-3)Gal(b1-3)GlcNAc
# Method in brief: as §1
# [21] = target: Neu5Ac(a2-3)Gal(b1-4)GlcNAc(b1-3)Gal(b1-4)GlcNAc
# Method in brief: as §1
# [22] = target: Neu5Ac(a2-3)Gal(b1-4)GlcNAc(b1-3)Gal(b1-4)GlcNAc(b1-2)Man(a1-3)[Neu5Ac(a2-3)Gal(b1-4)GlcNAc(b1-3)Gal(b1-4)GlcNAc(b1-2)Man(a1-6)]Man(b1-4)GlcNAc(b1-4)GlcNAc
# Method in brief: as §1
# [23] = target: Neu5Ac(a2-3)Gal(b1-4)GlcNAc(b1-3)Gal(b1-4)GlcNAc(b1-3)Gal(b1-4)GlcNAc
# Method in brief: as §1
# [24] = target: Neu5Ac(a2-3)Gal(b1-4)GlcNAc(b1-3)Gal(b1-4)GlcNAc(b1-3)Gal(b1-4)GlcNAc(b1-2)Man(a1-3)[Neu5Ac(a2-3)Gal(b1-4)GlcNAc(b1-3)Gal(b1-4)GlcNAc(b1-3)Gal(b1-4)GlcNAc(b1-2)Man(a1-6)]GalNAc
# Method in brief: as §1
# [25] = target: Neu5Ac(a2-3)Gal(b1-4)GlcNAc(b1-3)Gal(b1-4)GlcNAc(b1-3)GalNAc
# Method in brief: as §1
# [26] = target: Neu5Ac(a2-3)Gal(b1-4)GlcNAc(b1-3)Gal(b1-4)GlcNAc(b1-3)[Neu5Ac(a2-3)Gal(b1-4)GlcNAc(b1-3)Gal(b1-4)GlcNAc(b1-6)]GalNAc
# Method in brief: as §1
# [27] = target: Neu5Ac(a2-3)Gal(b1-4)GlcNAc(b1-3)Gal(b1-4)GlcNAc(b1-6)[Gal(b1-3)]GalNAc
# Method in brief: as §1
# [28] = target: Neu5Ac(a2-3)Gal(b1-4)GlcNAc(b1-3)Gal(b1-4)[Fuc(a1-3)]GlcNAc
# Method in brief: as §1
# [29] = target: Neu5Ac(a2-3)Gal(b1-4)GlcNAc(b1-3)GalNAc
# Method in brief: as §1
# [30] = target: Neu5Ac(a2-3)Gal(b1-4)GlcNAc(b1-3)[Neu5Ac(a2-3)Gal(b1-4)GlcNAc(b1-6)]GalNAc
# Method in brief: as §1
# [31] = target: Neu5Ac(a2-3)Gal(b1-4)GlcNAc(b1-6)GalNAc
# Method in brief: as §1
# [32] = target: Neu5Ac(a2-3)Gal(b1-4)GlcNAc(b1-6)[Gal(b1-3)]GalNAc
# Method in brief: as §1
# [33] = target: Neu5Ac(a2-3)Gal(b1-4)GlcNAc(b1-6)[Neu5Ac(a2-3)Gal(b1-3)]GalNAc
# Method in brief: as §1
# [34] = target: Neu5Ac(a2-3)Gal(b1-4)GlcNAc6S
# Method in brief: as §1
# [35] = target: Neu5Ac(a2-3)Gal(b1-4)[Fuc(a1-3)]GlcNAc
# Method in brief: as §1
# [36] = target: Neu5Ac(a2-3)Gal(b1-4)[Fuc(a1-3)]GlcNAc(b1-2)Man
# Method in brief: as §1
# [37] = target: Neu5Ac(a2-3)Gal(b1-4)[Fuc(a1-3)]GlcNAc(b1-3)Gal
# Method in brief: as §1
# [38] = target: Neu5Ac(a2-3)Gal(b1-4)[Fuc(a1-3)]GlcNAc(b1-3)Gal(b1-4)GlcNAc
# Method in brief: as §1
# [39] = target: Neu5Ac(a2-3)Gal(b1-4)[Fuc(a1-3)]GlcNAc(b1-3)Gal(b1-4)[Fuc(a1-3)]GlcNAc(b1-3)Gal(b1-4)[Fuc(a1-3)]GlcNAc
# Method in brief: as §1
# [40] = target: Neu5Ac(a2-3)Gal(b1-4)[Fuc(a1-3)]GlcNAc(b1-3)GalNAc
# Method in brief: as §1
# [41] = target: Neu5Ac(a2-3)Gal(b1-4)[Fuc(a1-3)]GlcNAc(b1-6)[Gal(b1-3)]GalNAc
# Method in brief: as §1
# [42] = target: Neu5Ac(a2-3)Gal(b1-4)[Fuc(a1-3)]GlcNAc(b1-6)[Neu5Ac(a2-3)Gal(b1-3)]GalNAc
# Method in brief: as §1
# [43] = target: Neu5Ac(a2-3)Gal(b1-4)[Fuc(a1-3)]GlcNAc6S
# Method in brief: as §1
# [44] = target: Neu5Ac(a2-3)Gal6S(b1-4)GlcNAc
# Method in brief: as §1
binder,measurement,setting,value
B1,glycan array binding signal (z-score),[1],0.36
same,glycan array binding signal (z-score),[2],-0.12
same,glycan array binding signal (z-score),[3],-0.246
same,glycan array binding signal (z-score),[4],-0.148
same,glycan array binding signal (z-score),[5],-0.394
same,glycan array binding signal (z-score),[6],0.186
same,glycan array binding signal (z-score),[7],-0.43
same,glycan array binding signal (z-score),[8],-0.468
same,glycan array binding signal (z-score),Neu5Ac(a2-3)Gal(b1-4)Glc,0.656
same,glycan array binding signal (z-score),[9],-0.064
same,glycan array binding signal (z-score),[10],-0.023
same,glycan array binding signal (z-score),[11],-0.354
same,glycan array binding signal (z-score),[12],-0.46
same,glycan array binding signal (z-score),[13],-0.174
same,glycan array binding signal (z-score),[14],-0.291
same,glycan array binding signal (z-score),[15],-0.325
same,glycan array binding signal (z-score),[16],-0.397
same,glycan array binding signal (z-score),[17],-0.3
same,glycan array binding signal (z-score),[18],-0.376
same,glycan array binding signal (z-score),[19],-0.382
same,glycan array binding signal (z-score),[20],-0.391
same,glycan array binding signal (z-score),[21],-0.31
same,glycan array binding signal (z-score),[22],-0.297
same,glycan array binding signal (z-score),[23],-0.345
same,glycan array binding signal (z-score),[24],-0.268
same,glycan array binding signal (z-score),[25],-0.422
same,glycan array binding signal (z-score),[26],-0.477
same,glycan array binding signal (z-score),[27],-0.483
same,glycan array binding signal (z-score),[28],-0.473
same,glycan array binding signal (z-score),[29],-0.379
same,glycan array binding signal (z-score),[30],-0.398
same,glycan array binding signal (z-score),[31],0.196
same,glycan array binding signal (z-score),[32],-0.331
same,glycan array binding signal (z-score),[33],-0.421
same,glycan array binding signal (z-score),[34],-0.128
same,glycan array binding signal (z-score),[35],-0.199
same,glycan array binding signal (z-score),[36],-0.234
same,glycan array binding signal (z-score),[37],-0.179
same,glycan array binding signal (z-score),[38],-0.07
same,glycan array binding signal (z-score),[39],-0.212
same,glycan array binding signal (z-score),[40],0.06
same,glycan array binding signal (z-score),[41],-0.144
same,glycan array binding signal (z-score),[42],-0.398
same,glycan array binding signal (z-score),[43],-0.363
same,glycan array binding signal (z-score),[44],0.355
